The values below come from patent US20250043002A1.

Experiment [1] deals with human CD28 on cells (endogenous on Jurkat/NFkB-Luc cells; human primary CD4+ T cells) (human) (UniProt P10747). Nature of the experiment: cell-based or functional assay.
The target of experiment [2] is human PD-L1 expressed on cells (HEK293/hCD20/hPSMA/hPD-L1; WSU-DLCL2/hPD-L1) (human) (UniProt Q9NZQ7). Nature of the experiment: cell-based or functional assay.
Chain of UniProt Q9NZQ7 (Q9NZQ7 19-290): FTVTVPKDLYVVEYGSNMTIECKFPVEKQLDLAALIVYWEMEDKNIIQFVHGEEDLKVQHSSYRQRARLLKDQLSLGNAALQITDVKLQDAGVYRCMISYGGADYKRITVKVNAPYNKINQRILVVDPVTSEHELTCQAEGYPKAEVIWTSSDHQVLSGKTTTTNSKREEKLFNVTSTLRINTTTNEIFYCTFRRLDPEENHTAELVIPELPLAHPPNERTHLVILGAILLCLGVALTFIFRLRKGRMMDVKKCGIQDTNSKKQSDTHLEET

B1: Control 6: a bispecific antibody with one arm binding to PD-L1 (derived from parental antibody mAb9364) and the other arm binding to an unrelated antigen (bispecific antibody, part only; not given: Unrelated antigen arm, V domains shown, part only)
VH: EVQLVESGGGLVQPGRSLRLSCAASGFTFDDYALHWVRQAPGKGLEWVSGISWTGGTIDYADSVKGRFTISRDNAKNSLYLQMSSLRTEDTAIYYCTRDIRGNWKYGGWFDPWGQGTLVTVSS
VL: [left out - about 100 residues]
For the molecule B1, in experiment [1], the NFkB-luciferase MAX (RLU), Jurkat/NFkB-Luc + HEK293/hCD20/hPSMA was 11400 RLU; the NFkB-luciferase MAX (RLU), Jurkat/NFkB-Luc + HEK293/hCD20/hPSMA + CD20×CD3 came out at 178000 RLU; the NFkB-luciferase MAX (RLU), Jurkat/NFkB-Luc + HEK293/hCD20/hPSMA/hPD-L1 turned out to be 17300 RLU; the NFkB-luciferase MAX (RLU), Jurkat/NFkB-Luc + HEK293/hCD20/hPSMA/hPD-L1 + CD20×CD3 turned out to be 145000 RLU. Moreover, in experiment [2], the AP-1 luciferase EC50, WSU-DLCL2/hPD-L1 + Jurkat/AP1-Luc/hPD1 was 874 pM and the AP-1 luciferase MAX (RLU), WSU-DLCL2/hPD-L1 + Jurkat/AP1-Luc/hPD1 turned out to be 1.1e+06 RLU.
